The test concerns NCI-H322M lung. Kind of test: NCI tumour cell line growth inhibition, 48 h.

The text below walks through data of PubChem BioAssay (NCI).

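Grown in 96-well plates, cells were treated for 48 hours with each compound at five concentrations. Insufficient inhibition: endpoint recorded as highest concentration tested. GI50 is the concentration that inhibits growth by half. TGI: total growth inhibition.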

Regarding `CCN1CCN(c2nc(C)cc(N(CCCNc3ccnc4cc(Cl)ccc34)Cc3ccco3)n2)CC1`, the GI50 was 2.76 µM and the TGI is 10.4 µM.

With `Cc1cc2nc(NS(=O)(=O)c3cc(C)c(Cl)cc3S)[nH]c2cc1C`, the TGI is more than 100 µM.

Compound `Oc1cccc2nc3cc(CN4CCOCC4)c(CN4CCOCC4)cc3nc12` gave a TGI of more than 100 µM.

Take `CN(C)C(=O)CO/N=C1/C(c2c(O)[nH]c3ccccc23)=Nc2ccccc21`: the TGI is more than 100 µM.

As to `Cc1[nH]ccc2cc3nc4ccccc4c3cc12`, the GI50 is 2.56 µM and the TGI turned out to be 12.1 µM.

Take `CN1CCN(c2ccc3nc(-c4ccc5nc(-c6ccc(N(C)CCCl)cc6)[nH]c5c4)[nH]c3c2)CC1`: the TGI was found to be 2.76 µM.

`CC(=O)Oc1cc(OC(C)=O)c2cc3c(cc2c1OC(C)=O)C(=O)C1(CCCC1)C3=O` displayed a TGI of 31.3 µM.

As for `CN(C)CCN1C(=O)c2cccc3c(-c4ccc5ncn(C6CCCCC6)c5c4)ccc(c23)C1=O`, the GI50 is 1.48 µM and the TGI was 8.04 µM.

`COc1cc2c(cc1-c1c(C)noc1C)ncc1[nH]c(=O)n([C@H](C)c3ccccn3)c12`: the GI50 was 1.09 µM and the TGI was more than 100 µM.

As to `[N-]=[N+]=NC(c1cn(C2CC(O)C(CO)O2)c(=O)[nH]c1=O)C(I)I` (centres undefined), the TGI was more than 100 µM.

As to `CO[C@H]1/C=C/C[C@H](C)[C@@H](C)S(=O)(=O)NC(=O)c2ccc3c(c2)N(C[C@@H]2CC[C@H]21)C[C@@]1(CCCc2cc(Cl)ccc21)CO3`, the GI50 was 3.2 µM and the TGI worked out at 13.3 µM.

Regarding `Cc1ccc(C(=O)Nc2ccccc2C(=O)N/N=C(\c2ccccc2)c2ccccn2)cc1`, the GI50 is 0.21 µM and the TGI was more than 100 µM.

Regarding `OCCCCC#Cc1ccccc1C#Cc1cccs1`, the GI50 was 19.9 µM and the TGI came out at 46.2 µM.

`CC1(C)OCC(C2OC(=O)C(OCc3ccccc3)=C2OCc2ccccc2)O1` (centres undefined) yielded a TGI of more than 100 µM.

Compound `COc1ccc(C2c3c(-c4ccccc4)nn(-c4ccccc4)c3Oc3ncn(N)c(=N)c32)cc1OC` (centres undefined) returned a TGI of 4.7 µM.

Consider `NC(N)=N/N=C(/c1ccccc1)c1ccc(O)cc1O`, for which the TGI is more than 100 µM.

On to `COc1cc(C(=C2SCCS2)c2nccc3cc(OC)c(OC)cc23)c([N+](=O)[O-])cc1OC`, for which the TGI is more than 100 µM.

Compound `CCOc1ccc(-n2c(=O)n3c(Nc4ccc(Cl)cc4)nc4c(c(=O)n(C)c(=O)n4C)n3c2=O)cc1` showed a TGI of more than 100 µM.

For `CC[S+](C)c1ccc(-c2c3nc(c(-c4ccc([S+](C)CC)cc4)c4ccc([nH]4)c(-c4ccc([S+](C)CC)cc4)c4nc(c(-c5ccc([S+](C)CC)cc5)c5ccc2[nH]5)C=C4)C=C3)cc1` (centres undefined), the TGI stood at 79.6 µM.

`CCCCCCCCC[C@@H]1C[C@@H]2CCC3C(C(=O)OCCCCNC(=O)OCc4ccccc4)=C(C)NC(=N1)N32` (some centres undefined) displayed a TGI of 28.7 µM.

For the compound `CC(C)=CCC[C@@H](C)C1=C(O)C(Nc2ccccc2F)=C(C)C(=O)C1=O`, the TGI is more than 100 µM.

Consider `CC(C)(C)n1cc(-c2ccnc(NCCCNS(=O)(=O)c3ccc(Cl)cc3)c2)c(-c2cccc(O)c2)n1`, for which the GI50 was 2.46 µM and the TGI turned out to be 6.86 µM.

With `CCCCCCCCCCCCCCCCCCNC(=S)/N=C/c1c(O)cc(C)oc1=O`, the TGI was found to be 64.9 µM.

With `CCOC(=O)c1[nH]n(-c2ccccc2)c(=O)c1C=NC(=S)C(N)=S`, the TGI was more than 100 µM.

With `O=C1/C(=C\c2cn(CC(O)CN3CCCCC3)c3ccccc23)c2ccccc2N1c1c(Cl)cccc1Cl` (centres undefined), the GI50 is 1.63 µM and the TGI was 3.34 µM.
